# Test results from PMC4336329 (PLoS ONE, 2015).
# In all, about 310,000 compounds went through this assay and about 14,000 (4.5%) showed an effect of 50% or more. Effects have a minus sign here. This is one part of the list.
# Molecular target: human ether-à-go-go-related gene (hERG) potassium channel (human, UniProt Q12809)
# Experiment: primary screen, population patch clamp on CHO cells stably expressing hERG
# 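Also: peak tail current of the secondary pulse compared with the same well before compound.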
# Chain of human ether-à-go-go-related gene (hERG) potassium channel (Q12809 whole entry, looked up): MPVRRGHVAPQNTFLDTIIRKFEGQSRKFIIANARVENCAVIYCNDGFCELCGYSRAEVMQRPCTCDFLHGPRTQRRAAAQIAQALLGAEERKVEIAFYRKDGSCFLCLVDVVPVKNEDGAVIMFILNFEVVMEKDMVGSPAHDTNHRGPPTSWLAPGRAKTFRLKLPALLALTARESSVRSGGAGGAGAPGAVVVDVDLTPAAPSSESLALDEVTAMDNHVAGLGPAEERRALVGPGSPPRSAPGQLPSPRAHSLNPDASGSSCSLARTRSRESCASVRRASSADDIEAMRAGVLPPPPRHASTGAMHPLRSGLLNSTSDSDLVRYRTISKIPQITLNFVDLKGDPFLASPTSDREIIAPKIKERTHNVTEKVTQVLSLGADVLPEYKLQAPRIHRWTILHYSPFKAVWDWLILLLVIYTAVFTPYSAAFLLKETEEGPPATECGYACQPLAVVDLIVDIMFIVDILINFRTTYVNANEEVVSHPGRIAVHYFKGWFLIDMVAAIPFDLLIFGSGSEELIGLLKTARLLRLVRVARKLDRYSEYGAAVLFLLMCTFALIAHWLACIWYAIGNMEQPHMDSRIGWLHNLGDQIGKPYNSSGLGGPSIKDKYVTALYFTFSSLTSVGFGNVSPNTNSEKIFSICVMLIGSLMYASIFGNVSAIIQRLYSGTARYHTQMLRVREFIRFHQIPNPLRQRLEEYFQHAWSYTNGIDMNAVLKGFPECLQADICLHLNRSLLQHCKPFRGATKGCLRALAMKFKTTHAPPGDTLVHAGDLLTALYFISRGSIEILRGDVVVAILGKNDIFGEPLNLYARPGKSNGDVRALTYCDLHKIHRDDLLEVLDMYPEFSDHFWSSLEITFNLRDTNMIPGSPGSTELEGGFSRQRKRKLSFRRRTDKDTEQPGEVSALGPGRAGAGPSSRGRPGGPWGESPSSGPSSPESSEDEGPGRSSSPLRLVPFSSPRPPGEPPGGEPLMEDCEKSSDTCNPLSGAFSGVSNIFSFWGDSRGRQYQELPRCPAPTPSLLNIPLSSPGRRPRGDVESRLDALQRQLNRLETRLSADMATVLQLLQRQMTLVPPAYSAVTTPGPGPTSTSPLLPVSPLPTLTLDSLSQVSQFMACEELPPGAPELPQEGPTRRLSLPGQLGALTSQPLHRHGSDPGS
row,SMILES,"hERG current change (%, negative = inhibition) at 10uM [%]"
1,CCC(C)Sc1cc(C)c(C#N)c2nc3ccccc3n12 (stereo not shown),-35.7
2,COc1ccc(NS(=O)(=O)c2cccc(C(=O)NCC(c3ccccc3)N(C)C)c2)cc1 (stereo not shown),-27
3,CN(C)S(=O)(=O)c1cccc(C(=O)Nc2cc(Cl)cc(Cl)c2)c1,4.25
4,COc1cc([N+](=O)[O-])ccc1NC(=S)NNC(=O)c1ccc2c(c1)OCO2,5.52
5,Nc1nc(=S)c2ncn(C3CCCC3)c2[nH]1,18
6,CN(C)S(=O)(=O)c1ccc(NC(=O)CN2CCC(Cc3ccccc3)CC2)cc1,-32.8
7,COC(=O)C(C)Sc1nc2c(c(-c3ccc(OC)cc3)c1C#N)-c1ccccc1C2=O (stereo not shown),14.3
8,CCN1C(=O)[C@H]2[C@@H](c3ccc(-c4ccc(Cl)c(Cl)c4)c(OC)c3)N[C@@](C)(C(=O)OC)[C@H]2C1=O.O=C(O)C(F)(F)F,15.7
9,O=C(c1n[nH]c2ccccc12)N1CCN(c2ccc(F)cc2)CC1,-7.98
10,Cc1ccc(S(=O)(=O)Cn2nnnc2CN2CCN(C(=O)c3ccco3)CC2)cc1,-15.8
11,Cc1nn(C)cc1/C=N/NC(=O)CSc1ccccn1,6.54
12,O=C(CCN1C(=O)c2ccc([N+](=O)[O-])cc2C1=O)Nc1ccccc1C(=O)O,14.6
13,C[C@H](NC(=O)N1C[C@H]2C[C@@H](C1)c1cccc(=O)n1C2)C(=O)Nc1cccc(F)c1,2.4
14,COCCN(C(=S)Nc1ccc(OC)c(Cl)c1)C1CCN(C(C)C)CC1,-35.9
15,COc1ccc(N2CCN(C(=O)C3CCCN3S(=O)(=O)c3cccc4nsnc34)CC2)cc1 (stereo not shown),-30.6
16,COc1ccc(NC(=O)C2CCN(c3ncnc4c3nc3n4CCCCC3)CC2)c(OC)c1,-8.8
17,CCOc1ccc(OCC)c(NC(=O)CN2CCN(CC(=O)NC(C)C)CC2)c1.Cl,9.43
18,Cc1c(N)cc(N)cc1C(=O)O,8.42
19,O=[N+]([O-])c1ccccc1CNCCCCO,-3.05
20,CN(C)S(=O)(=O)c1ccc(Cl)c(NC(=O)CN2CCc3ccccc3C2)c1,-12.7
21,CCN(CC)S(=O)(=O)c1ccc(NC(=O)CSc2nnc(-c3ccc(F)cc3)o2)cc1,-2.4
22,Cc1cc2oc(C(=O)N(Cc3ccccc3)C3CCS(=O)(=O)C3)cc(=O)c2cc1Cl (stereo not shown),-14.5

row,SMILES,"hERG current change (%, negative = inhibition) at 10uM [%]"
1,CCOc1ccccc1NC(=O)Nc1cc(C(=O)O)ccc1C,22.1
2,COc1ccc2[nH]c(C(=O)NCc3ccccc3)c(C)c2c1.Cl,7.03
3,CC(=Nc1ccccc1)C1=C(O)CC(C)(C)CC1=O,12
4,CC1CCN(C(=O)c2ccc(S(=O)(=O)Cc3cccc(F)c3)c([N+](=O)[O-])c2)CC1,6.75
5,O=C(NC(=S)NC1CC1)c1cccnc1,-0.582
6,Cc1cc(C)nc(Nc2n[nH]c(C)n2)n1,16.4
7,COc1ccc(Nc2ccc(N3C(=O)CC(C)C3=O)cc2[N+](=O)[O-])cc1OC (stereo not shown),3.58
8,COC(=O)CCCCC1SCC(NC(=O)OC)C1NC(=O)OC (stereo not shown),2.09
9,O=C(NCc1ccncc1)c1ccc(OCc2ccccc2)cc1,-32
10,Cc1cccc(C(C)C)c1NC(=O)c1ccc(CN(c2ccccc2)S(=O)(=O)c2ccccc2)cc1,7.12
11,O=C(CSc1nncn1-c1ccccc1)NC1CCCC1,-8.09
12,Cc1cccc(C)c1Nc1c(-c2ccsc2)nc2ncccn12,-16.2
13,Cc1ccc(S(=O)(=O)N(C(=O)c2ccco2)c2cc3sc(=O)oc3c3ccccc23)cc1,8.16
14,CCOC(=O)[C@H]1[C@H]2COc3ccc(C)cc3[C@@H]2N2C(=O)c3ccc(F)cc3NC(=O)[C@@]12C,-22.8
15,O=C(Nc1cccc(F)c1)c1ccc(S(=O)(=O)N2CCCC2)cc1,-23.5
16,CC(NC(=O)c1cc(=O)[nH]c2ccccc12)c1ccc(F)cc1F (stereo not shown),18.9
17,Cc1noc(C)c1S(=O)(=O)Nc1ccc(C(=O)N2CCN(c3ccc(F)cc3)CC2)cc1,6.88
18,CNS(=O)(=O)c1ccc(CCC(=O)N2CCN(c3ccccc3OC)CC2)cc1,-5.03
19,Cn1c(=O)[nH]c(=O)c2cc(C(=O)c3cc(F)ccc3O)cnc21,8.74
20,COc1ccccc1CCNC(=O)c1ccc(NC(=O)CC2SC(N3CCCC3)=NC2=O)cc1 (stereo not shown),13.8
21,COc1ccc(C2C(C(C)=O)=C(O)C(=O)N2c2cccnc2)c(OC)c1 (stereo not shown),4.39
